Reference: PubChem BioAssay AID504832 (National Center for Advancing Translational Sciences (NCATS), 2011)
Screen size: about 310,000 compounds; about 18,000 (5.8%) were called active. Inconclusive results, whose numbers are uncertain, are shown with a selection of clear calls. Calls follow the shape of the dose curve; as a rule, active = well fitted inhibition curve with a large enough effect; inconclusive = small, poorly fitted or top-dose-only effect, or another doubt; inactive = no such curve, though single readings can be large or run the other way. No potency is given beside an inconclusive call; the fits are too rough.

Assay: Primary qHTS for delayed death inhibitors of the malarial parasite plastid, 48 hour incubation
Conditions: P. falciparum luciferase growth in erythrocytes; series mostly up to 28.7 µM; activity change, negative = inhibition: at the top concentration
Procedure, shortened: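 Luciferase-expressing P. falciparum in infected erythrocytes (2% hematocrit, 0.1% parasitemia final) in RPMI 1640/0.5% Albumax were exposed to compound for 48 hours at 37 C, 5% CO2; growth read as luminescence.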
% is scaled to controls: 0 for no effect and ±100 for the full control effect; potency is read from the fitted curve at half-maximal effect; tags tell the direction and shape of the fitted curve.

Row | Structure (SMILES) | Potency | activity change, negative = inhibition
1 | C/C(=N\NC(=S)NC1CCCCC1)c1ccc(Cl)c(Cl)c1 | active: 2.33 µM | 
2 | CC(C)OCCCn1c(SC(C)C(=O)NCC2CCCO2)nc2cc(Cl)ccc2c1=O (centres undefined) | inconclusive [inhibitor, single point] | 
3 | CNC(=O)CN(C1CCCCC1)S(=O)(=O)c1ccc(OC)c(Cl)c1 |  | inactive: -4.57%
4 | Nc1nc(C2CC2)c(Sc2sc(N)nc2C2CC2)s1 |  | inactive: 26.7%
5 | O=C(COc1ccc(Cl)cc1Cl)Nn1c(=S)[nH]c2ncccc2c1=O |  | inactive: 31.5%
6 | CCN1CCN(C(c2ccc(F)cc2)c2nnnn2Cc2ccc3c(c2)OCO3)CC1 (centres undefined) | inconclusive [inhibitor, single point] | 
7 | Cc1cccc(-c2cccc(NC(=O)C3CCCN(Cc4cccnc4)C3)c2)c1 (centres undefined) | inconclusive [inhibitor, single point] | 
8 | Cc1c(NC(=O)c2ccccc2NC(=O)c2ccccc2)cccc1C(=O)O |  | inactive: 11.7%
9 | COc1ccccc1N1CCN(C(=O)COc2cc(C)cc(C)c2)CC1 | inconclusive [inhibitor, full curve, poor fit] | 
10 | COc1cc(OC)cc(-c2c(-c3cccs3)c3cc(-c4ccc5[nH]ccc5c4)ccc3n2C)c1 | active: 6.57 µM | 
11 | Cn1c(=O)c2c(nc(NCc3ccc4c(c3)OCO4)n2Cc2ccc(F)cc2)n(C)c1=O | active: 11.7 µM | 
12 | CCNC(=O)Cc1ccc(S(=O)(=O)N2CCOCC2)s1 | inconclusive [inhibitor, single point] | 
13 | O=[N+]([O-])c1ccc(/C=N/n2cnc3ccccc32)s1 | active: 5.86 µM | 
14 | CSC(=NC#N)N1CCN(C(=NC#N)SC)CC1 | active: 9.28 µM | 
15 | Cc1ccc(NC(=O)CNc2cccc(S(=O)(=O)N3CCCCC3)c2)cc1F | inconclusive [inhibitor, single point] | 
16 | COC(=O)c1c(-c2ccccc2)c(-c2ccccc2)nn(C)c1=O | inconclusive [inhibitor, partial curve, poor fit] | 
17 | COc1nc(NCc2ccc(Cl)cc2)nc(OC)n1 | inconclusive [inhibitor, single point] | 
18 | COCc1cc(Sc2ccc(Cl)cc2Cl)nc(-c2ccccc2)n1 | active: 11.7 µM | 
19 | CC1(C)CC(=O)C=C(c2cccc3c2sc2ccccc23)C1 |  | inactive: -8.97%
20 | CCOC(=O)c1sc2c(c1C)C(c1cccs1)C1=C(CCCC1=O)N2 (centres undefined) | inconclusive [inhibitor, single point] | 
21 | Cc1cc(C)cc(N(CC(=O)NC(C)(C)C)C(=O)CNC(=O)c2cccs2)c1 | inconclusive [inhibitor, full curve] | 
22 | COc1cccc(/C=N/N2CCN(C3c4ccccc4-c4ccccc43)CC2)c1O | active: 13.1 µM | 
23 | COc1ccc(N(C)S(=O)(=O)c2cccc(C(=O)OC(C(=O)Nc3cc(C)cc(C)c3)c3ccccc3)c2)cc1 (centres undefined) |  | inactive: -3.23%

Row | Structure (SMILES) | Potency | activity change, negative = inhibition
24 | CN(CC1COc2ccccc2O1)C(=O)c1cccc(S(=O)(=O)N2CCCC2)c1 (centres undefined) | inconclusive [inhibitor, single point] | 
25 | CC1(OC(=O)C2CCCC2)C(=O)C=C2C=C(c3ccsc3)N(Cc3ccc4c(c3)OCO4)C=C2C1=O (centres undefined) | inconclusive [inhibitor, partial curve, poor fit] | 
26 | COc1cccc(OCC(O)CNC(=O)c2oc3c(C)c(C)ccc3c2C)c1 (centres undefined) | inconclusive [inhibitor, full curve, poor fit] | 
27 | Cc1nn(-c2ccccc2)c(C)c1NC(=O)COC(=O)c1cccc(OC(F)F)c1 |  | inactive: 3.82%
28 | CCOC(=O)Cc1c(C)nc2c(-c3cccc(Br)c3)c[nH]n2c1=O | inconclusive [inhibitor, partial curve, poor fit] | 
29 | C/C(CCN1CCCCc2nc(C)c(C)cc21)=N\O[C@H](C)c1cn([C@H](CO)Cc2ccccc2)nn1 | inconclusive [inhibitor, single point] | 
30 | Cc1cccc(Cn2cnc3c(sc4nc(C)cc(C)c43)c2=O)c1 |  | inactive: 0%
31 | O=C1OCCN1CCNCc1cn(-c2ccc(F)cc2)nc1-c1ccccc1Cl | inconclusive [inhibitor, partial curve, poor fit] | 
32 | O=C(Cc1ccc(F)cc1)N1CCN=C1SCc1cccc([N+](=O)[O-])c1 | inconclusive [inhibitor, partial curve, poor fit] | 
33 | NNc1ccc(S(=O)(=O)N2CCCCC2)cn1 | inconclusive [inhibitor, single point] | 
34 | O=C(c1ccc2c(c1)OCO2)N(Cc1cccs1)C1(C(=O)NC2CCCCC2)CCCCC1 | inconclusive [inhibitor, single point] | 
35 | CC(C)CC(COCc1ccc([N+](=O)[O-])cc1)N1CCN(C(=O)c2ccc(C(F)(F)F)cc2)CCC1=O (centres undefined) | inconclusive [inhibitor, partial curve, poor fit] | 
36 | Cc1cccc(CSCc2ccc(C(=O)NC(C)C)o2)c1 |  | inactive: 2.31% [at 0.00184 µM]
37 | N/C(=N\OC(=O)C1CCCCC1)c1ccc(Cl)cc1 |  | inactive: 43.6%
38 | Cc1[nH]n(-c2ccccc2)c(=O)c1/C=N/Nc1nncc(-c2ccccc2)n1 | active: 0.415 µM | 
39 | O=C(Nc1ccc(F)cc1)C(NC1CCCCC1)c1ccccc1 (centres undefined) | inconclusive [inhibitor, partial curve, poor fit] | 
40 | CCC1CCCCN1CCCNC(=O)Cn1cnc2sc(C)c(S(=O)(=O)N3CC(C)CC(C)C3)c2c1=O (centres undefined) | inconclusive [inhibitor, partial curve] | 
41 | Cc1cccc(NC(=O)C2=C(O)c3ccccc3N(C)S2(=O)=O)c1 | inconclusive [inhibitor, single point] | 
42 | CC(C)[C@H](NC(=O)Nc1ccc(Oc2ccccc2)cc1)C(=O)O |  | inactive: 34.2%
43 | CCOc1cc(C(=O)N[C@@H](C)C(=O)N2CCC3(CC2)NCCc2[nH]cnc23)cc(OCC)c1OCC | inconclusive [inhibitor, partial curve, poor fit] | 
44 | CN1CCC(=NNc2ncnc3sc4c(c23)CCCC4)CC1 | inconclusive [inhibitor, single point] | 
45 | CSc1ccccc1NC(=O)CN(C)C(=O)/C=C/c1ccccc1 | inconclusive [inhibitor, single point] | 
46 | O=[N+]([O-])c1ccc(COc2cccc(CNc3ccc(Br)cc3)c2)cc1 |  | inactive: -21.3%

Row | Structure (SMILES) | Potency | activity change, negative = inhibition
47 | CC12CCC(=O)N1C(C(=O)Nc1nc(-c3ccc(F)cc3)cs1)CS2 (centres undefined) | inconclusive [inhibitor, single point] | 
48 | O=C(C1=C(O)C(=O)N(CCc2ccccc2)C1c1ccncc1)c1cc2ccccc2o1 (centres undefined) |  | inactive: 10.8%
49 | CCNc1nc(NC(C)(C)C)nc(SC(C(C)=O)C(C)=O)n1 |  | inactive: -10.2%
50 | CC(C)[C@H](CO)Nc1nc(NCc2ccc(S(N)(=O)=O)cc2)c2ncn(C(C)C)c2n1 | inconclusive [inhibitor, single point] | 
51 | COc1ccc(-c2csc(N3CCSCC3)n2)cc1 |  | inactive: 104%
52 | Cc1[nH]c2ccc(F)cc2c1CCN(Cc1ccncc1)C(=S)Nc1ccc(F)cc1 | inconclusive [inhibitor, partial curve, poor fit] | 
53 | COc1ccc(-c2cc(C(=O)N(C)CC(=O)Nc3cccc(F)c3)c3ccccc3n2)cc1 | inconclusive [inhibitor, single point] | 
54 | O=C(Nc1cccc2ncccc12)c1ccc(Cl)cc1 | inconclusive [inhibitor, single point] | 
55 | COC(=O)c1ccc(CSc2nc3ccc(S(N)(=O)=O)cc3[nH]2)cc1 |  | inactive: 21.6%
56 | N=c1ccn(Cc2ccc(Cl)cc2)cc1 | active: 1.85 µM | 
57 | CCOC(=O)c1ccccc1NC(=O)COC(=O)CN1C(=O)C2CC=CCC2C1=O (centres undefined) |  | inactive: -3.1%
58 | O=C(N/C(=C/c1cccc([N+](=O)[O-])c1)C(=O)N1CCCCCC1)c1ccco1 |  | inactive: 4.63%
59 | CCOc1ccc(S(=O)(=O)N2CCC(C(=O)NCc3ccccc3CN3CCCC3)CC2)cc1 | active: 9.28 µM | 
60 | Cc1ccc(CNC(=O)c2ccc(Cl)c(S(=O)(=O)N3CCCCC3)c2)cc1 | inconclusive [inhibitor, single point] | 
61 | O=C(Nc1ccccc1C(=O)OCC(=O)N1CCc2ccccc2C1)c1ccco1 | inconclusive [inhibitor, single point] | 
62 | CCOC(=O)C(C)Sc1cc(CS(=O)(=O)c2ccccc2)nc(-c2ccccc2)n1 (centres undefined) |  | inactive: 23.2%
63 | CN(/N=C/c1cccc(Br)c1)C1=NS(=O)(=O)c2ccccc21 | inconclusive [inhibitor, full curve, poor fit] | 
64 | CC(C)c1ccc(-c2c(C#N)c(N)nc3c2CCCCC3)cc1 | inconclusive [inhibitor, single point] | 
65 | CCN(CC)CCNC(=O)c1ccc(NC(=O)c2ccccc2-c2ccc(C(F)(F)F)cc2)cc1 | active: 13.1 µM | 
66 | CCOC(=O)C1CCCN(CC(O)COC(c2ccccc2)c2ccccc2)C1 (centres undefined) | inconclusive [inhibitor, single point] | 
67 | Cc1cccc(NC(=O)c2ccc(NC(=O)CC3SC(N4CCCC4)=NC3=O)cc2)n1 (centres undefined) | inconclusive [inhibitor, single point] | 
68 | O=C(CN1CCN(Cc2ccccc2)CC1)c1c[nH]c2ccccc12 | inconclusive [inhibitor, single point] | 
69 | S=C(NCCC1=CCCCC1)Nc1ccccc1 | inconclusive [inhibitor, single point] | 
